Laboratory results: the supplement of paper PMC7826260
The other results are listed elsewhere or left out. One pool of 16,384 single-stranded DNAs met each Rep nickase domain in vitro (1 h at 37 °C, 3 µM enzyme); the outer parts of the 90-letter strands are left off. Numbers give uncut DNA relative to the enzyme-free pool, as log2; more negative means more cut, near 0 not cut, and no call is made. The scaling is to total reads; where an enzyme cuts many sequences, the uncut ones exceed 0.

Tests used:
Experiment in all cases: uncleaved DNA left, log2 of reads against the no-enzyme library (log2 ratio); higher = less cleavage (more negative = more Rep cleavage of the k-mer); sequences stand for … in CTCGTCCG…ACCGGAGA
[1] = test system: T1, Rep nickase domain of Muscovy duck circovirus
T1 sequence (protein, residues 1-111, tag omitted): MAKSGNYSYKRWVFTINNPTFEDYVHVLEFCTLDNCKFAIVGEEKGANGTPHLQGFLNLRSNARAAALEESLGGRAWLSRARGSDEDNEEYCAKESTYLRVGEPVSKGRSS
Method: (§1)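 A pool of 90-nt single-stranded DNAs with seven random bases just before the constant AC of the nick site (name = the seven bases) was cut by 3 µM recombinant His6-SUMO-tagged Rep nickase domain (300 nM DNA, 50 mM HEPES pH 8.0, 50 mM NaCl, 1 mM MnCl2, 1 h, 37 °C, three replicates). Uncut DNA was amplified and sequenced.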

[2] = test system: T2, Rep nickase domain of banana bunchy top virus
T2 sequence (protein, residues 1-94, tag omitted): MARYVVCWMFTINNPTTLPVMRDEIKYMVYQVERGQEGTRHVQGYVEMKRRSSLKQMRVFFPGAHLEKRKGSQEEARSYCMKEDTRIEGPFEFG
Method: as §1

[3] = test system: T3, Rep nickase domain of cabbage leaf curl virus
T3 sequence (protein, residues 1-116, tag omitted): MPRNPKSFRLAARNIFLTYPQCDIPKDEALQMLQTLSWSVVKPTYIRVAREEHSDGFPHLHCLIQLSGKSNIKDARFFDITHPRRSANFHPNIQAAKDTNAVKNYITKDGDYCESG
Method: as §1

[4] = test system: T4, Rep nickase domain of chickpea chlorotic dwarf virus
T4 sequence (protein, residues 1-124, tag omitted): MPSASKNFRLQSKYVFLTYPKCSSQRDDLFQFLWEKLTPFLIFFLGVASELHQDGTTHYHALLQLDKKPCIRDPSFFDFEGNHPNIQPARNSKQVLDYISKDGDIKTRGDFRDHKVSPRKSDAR
Method: as §1

[5] = test system: T5, Rep nickase domain of faba bean necrotic yellows virus
T5 sequence (protein, residues 1-98, tag omitted): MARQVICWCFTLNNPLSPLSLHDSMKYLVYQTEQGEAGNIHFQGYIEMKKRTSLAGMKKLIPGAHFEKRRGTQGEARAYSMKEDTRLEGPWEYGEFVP
Method: as §1

[6] = test system: T6, Rep nickase domain of maize striate mosaic virus
T6 sequence (protein, residues 1-117, tag omitted): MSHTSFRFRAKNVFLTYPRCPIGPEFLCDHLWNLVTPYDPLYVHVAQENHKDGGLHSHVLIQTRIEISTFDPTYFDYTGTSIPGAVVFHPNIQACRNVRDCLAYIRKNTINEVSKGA
Method: as §1

[7] = test system: T7, Rep nickase domain of porcine circovirus 2
T7 sequence (protein, residues 2-116, tag omitted): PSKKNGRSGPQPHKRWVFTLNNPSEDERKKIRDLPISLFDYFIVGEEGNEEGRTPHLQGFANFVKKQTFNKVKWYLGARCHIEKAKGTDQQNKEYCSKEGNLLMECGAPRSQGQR
Method: as §1

[8] = test system: T8, Rep nickase domain of tomato golden mosaic virus
T8 sequence (protein, residues 1-124, tag omitted): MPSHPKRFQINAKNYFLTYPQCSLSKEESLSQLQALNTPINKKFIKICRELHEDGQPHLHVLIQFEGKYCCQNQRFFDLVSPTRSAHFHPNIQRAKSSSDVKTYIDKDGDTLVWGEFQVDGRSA
Method: as §1

[9] = test system: T9, Rep nickase domain of tomato yellow leaf curl virus
T9 sequence (protein, residues 1-136, tag omitted): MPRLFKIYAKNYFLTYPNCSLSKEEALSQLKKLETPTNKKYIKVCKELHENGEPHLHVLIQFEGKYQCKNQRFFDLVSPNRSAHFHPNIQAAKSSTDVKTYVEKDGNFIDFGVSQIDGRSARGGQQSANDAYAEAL
Method: as §1

[10] = test system: T10, Rep nickase domain of wheat dwarf virus
T10 sequence (protein, residues 1-137, tag omitted): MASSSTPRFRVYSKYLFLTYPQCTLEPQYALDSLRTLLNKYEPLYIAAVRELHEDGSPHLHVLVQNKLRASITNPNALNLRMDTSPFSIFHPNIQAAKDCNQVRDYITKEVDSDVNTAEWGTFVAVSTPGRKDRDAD
Method: as §1

Row | Sequence | uncleaved DNA left (log2) [1] | uncleaved DNA left (log2) [2] | uncleaved DNA left (log2) [3] | uncleaved DNA left (log2) [4] | uncleaved DNA left (log2) [5] | uncleaved DNA left (log2) [6] | uncleaved DNA left (log2) [7] | uncleaved DNA left (log2) [8] | uncleaved DNA left (log2) [9] | uncleaved DNA left (log2) [10]
1 | GGGTGTC | -0.0183 | 0.00794 | 0.67 | 1.62 | -0.059 | 2.1 | 0.113 | -0.113 | 0.0162 | 0.0616
2 | GCGAGAG | -0.0456 | 0.0621 | -0.0968 | 0.433 | 0.0211 | -0.0602 | 0.155 | 0.0818 | 0.0275 | 0.153
3 | TATGCCT | -0.0425 | -0.309 | -1.22 | -2.78 | -0.0513 | -1.07 | -0.449 | -0.0873 | 0.00246 | -0.124
4 | AACGACG | 0.0479 | -0.0208 | -0.172 | 0.218 | 0.0349 | 0.341 | 0.13 | 0.0284 | -0.0953 | -0.0332
5 | GAAGGCG | 0.00478 | 0.0191 | -0.638 | 0.534 | 0.0316 | -0.41 | 0.118 | 0.0635 | 0.0466 | -0.0804
6 | GTGGATA | 0.0227 | 0.175 | 0.638 | 1.36 | -0.0446 | 2.08 | 0.197 | 0.0297 | 0.0143 | -0.00964
7 | GATTACA | -0.725 | -0.146 | 0.0934 | -1.78 | -0.0189 | 0.906 | -0.469 | 0.0569 | 0.0738 | 0.0941
8 | AACAGGC | -0.0473 | -0.0149 | -0.121 | -0.239 | -0.0102 | -0.921 | 0.188 | 0.0398 | -0.0308 | -0.017
9 | GTGCACA | 0.0135 | 0.191 | 0.43 | 1.03 | 0.063 | 1.72 | 0.181 | 0.112 | 0.155 | 0.169
10 | TACGCGT | 0.0489 | -0.097 | -0.941 | -1.5 | -0.00694 | -1.03 | 0.102 | -0.0464 | -0.0663 | -0.207
11 | GAGTCCC | 0.0661 | 0.139 | 0.394 | 0.723 | 0.00389 | 1.35 | -2.38 | 0.0532 | 0.159 | 0.277
12 | GAATCAT | -0.0841 | 0.165 | -1.14 | -1.02 | 0.0308 | 1.82 | -0.903 | -0.0919 | 0.083 | 0.0663
13 | CGTGTCT | -0.0496 | -0.127 | -0.0311 | -0.861 | -0.0634 | -0.298 | -0.389 | -0.154 | -0.0539 | -0.141
14 | TAAGATT | -0.159 | -0.265 | -4.09 | -2.83 | -0.0431 | -2.13 | -1.12 | -3.74 | -0.333 | -3.74
15 | TATCGAT | 0.0326 | -0.0328 | -0.298 | -1.23 | 0.0708 | 0.236 | -0.489 | -0.0696 | -0.00785 | 0.0337
